# Source: the supplement of paper PMC5499739
# In all, about 16,000 sequences were measured (“Z-score”: median about -0.37, highest 2% from about 3.2 on). The list shows a part of the results.
# Test system: RBM10 RRM1-ZnF (GST-tagged construct)
# Experiment: RNAcompete 7-mer binding Z-score; higher = stronger binding preference
# Description: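 RNAcompete: 20 pmol GST-tagged RBM10 RNA-binding constructs were incubated with a designed RNA pool of about 241,000 sequences up to 41 nt (1.5 nmol) on glutathione beads for 30 min at 4 °C and washed. Bound RNAs were identified by microarray hybridisation. Each RNA 7-mer is scored by a one-sided Z-score of its enrichment, computed over probes that contain the 7-mer within longer pool sequences.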
row,Sequence,RNAcompete 7-mer binding Z-score
1,CCGUUUG,-0.85
2,UUUCCUA,-0.889
3,CGAGCAA,-0.0285
4,CCAGGAG,0.758
5,GUCGUGC,-0.181
6,CUGAGGU,0.842
7,UUGCCUG,-0.642
8,UAGUUCG,-0.571
9,CCGAAGU,-0.431
10,CCGGUGG,0.988
11,UUAAGAU,-0.422
12,UGAAACU,-0.552
13,UACAAUU,-0.591
14,CCGAGGG,0.943
15,UACCAUU,-0.737
16,CGCAUUG,-0.347
17,UGGCAAU,-0.022
18,AUACAGC,-0.503
19,CAGCUUU,-0.821
20,CCAAAGU,-0.604
21,UGUCGGU,0.248
22,GACCAGA,-0.233
23,GUCUCGC,-0.607

row,Sequence,RNAcompete 7-mer binding Z-score
1,AGUGAAG,1.64
2,CCAGCCU,-0.714
3,UCCGGGG,1.4
4,AGAAAGU,0.345
5,UAACCUU,-0.824
6,UACGCCU,-0.688
7,UCGUACU,-0.539
8,UGCCUCU,-0.789
9,GGUCUCC,-0.113
10,CUUUGAU,-0.73
11,GUACCUA,-0.5
12,GCCCUUC,-0.724
13,UACUUCU,-0.815
14,CCUUAGA,-0.694
15,ACUGCUC,-0.902
16,AGCAAAC,-0.152
17,AACUUCA,-0.74
18,CCCGAAG,-0.597
19,UGUGCGU,0.0885
20,AACGUGA,0.14
21,ACAGUAG,0.29
22,UGUAUUC,-0.587
23,CCGCAUG,-0.383

row,Sequence,RNAcompete 7-mer binding Z-score
1,UUGGAUG,1.73
2,CUUCAGA,-0.909
3,CUAUCAC,-0.681
4,CGACUCC,-0.88
5,GGACACA,0.8
6,GUAUGCC,-0.363
7,AACACCA,-0.584
8,GGUUUGG,3.62
9,UUGGGCC,0.452
10,AAGUGUC,-0.402
11,UUUAUAU,-0.532
12,AACAUAC,-0.578
13,AAGAAGC,0.189
14,AGAGUCA,-0.0934
15,GGCAACG,0.923
16,UCUAAUG,-0.545
17,UCGCUAU,-0.629
18,ACCUGAG,-0.327
19,GUGUCUU,-0.246
20,GUGCACG,0.426
21,UGUAAAC,-0.272
22,AGGGGUU,2.52
23,GAACUGG,1.24

row,Sequence,RNAcompete 7-mer binding Z-score
1,GCUAUGA,-0.217
2,UUAAUUU,-0.74
3,CUGGGGC,0.901
4,CGAAUAA,-0.441
5,UCAAUCA,-0.503
6,CAAUGAC,-0.617
7,UCUUUCU,-0.915
8,CAUCGUU,-0.659
9,CUGUAGA,-0.246
10,GUGACUG,0.491
11,ACGCCCU,-0.532
12,UAUGGAG,1.67
13,AAUACGU,-0.311
14,ACGCAAA,-0.36
15,AAGGGGU,4.48
16,GGCGACA,0.823
17,CGUCGUU,-0.47
18,CGAAAUC,-0.737
19,CGAAAUU,-0.737
20,AGAUCCG,-0.824
21,CUGCUAC,-0.607
22,GAAAACA,0.069
23,GCGCUCC,-0.506

row,Sequence,RNAcompete 7-mer binding Z-score
1,ACAGUAC,-0.535
2,CGAUAUA,-0.558
3,ACGGCGC,-0.295
4,GAAGAAG,2.82
5,UGACGUG,0.189
6,UAUACAA,-0.292
7,AGCGCAG,0.322
8,AACGGCC,-0.574
9,UGUGGAA,2
10,UGAGGCC,0.0625
11,ACACCAA,-0.665
12,UGAUAGA,0.192
13,CUGUUUA,-0.815
14,GGGGAUA,3.45
15,AGUCAAA,-0.392
16,GCCCGUU,-0.642
17,AUUCGUA,-0.61
18,GGGGCCA,0.92
19,UCCUGUG,-0.357
20,UACCAAG,-0.461
21,ACCUCGC,-0.496
22,CUAAUCG,-0.321
23,CCGAGCC,-0.665

row,Sequence,RNAcompete 7-mer binding Z-score
1,CGAGCGC,-0.253
2,GGGAACU,1.29
3,CAUUACU,-0.779
4,AUUCGCG,-0.49
5,AGUUCAG,-0.155
6,UAGAAGG,3.12
7,GUUGAAG,1.99
8,UACUGAU,-0.558
9,UCAGCGU,-0.373
10,GGAGUUU,1.19
11,UAGUGGA,1.54
12,ACUCAAA,-0.675
13,AAGUUGC,-0.308
14,CCAAAUG,-0.571
15,AGCGCCG,-0.448
16,AACCUUG,-0.886
17,UCGAACG,-0.149
18,AACGCUU,-0.724
19,UAGAUCC,-0.529
20,UAAGCGU,-0.0447
21,AGAAUAG,0.514
22,GGUCUUC,-0.21
23,AACGAAC,-0.444

row,Sequence,RNAcompete 7-mer binding Z-score
1,CCCUGCA,-0.789
2,AGUGCUA,-0.0577
3,GCACCGA,-0.266
4,AACCCCU,-0.698
5,GUGAAAU,0.758
6,UAGCCAU,-0.72
7,CCCCGUU,-0.704
8,AAACGGG,2.75
9,AAUGAUU,-0.347
10,CGGCUCG,-0.21
11,UUGGCUG,0.0918
12,AGGAGUG,2.91
13,CCUCACC,-0.509
14,AGGUAUU,0.618
15,GGUCCGA,0.0625
16,AUAUCAC,-0.613
17,UACUAGU,-0.535
18,UGACGGC,0.228
19,AAGUCGU,-0.194
20,AGGGCCU,-0.142
21,UCUCAUC,-0.854
22,AAUCCGC,-0.72
23,CAGGAGC,1.24

row,Sequence,RNAcompete 7-mer binding Z-score
1,GGACAAU,0.927
2,AUUUCAC,-0.724
3,CUGACUA,-0.405
4,UGUUUUC,-0.73
5,UCGGGGU,2.07
6,AGCUGCG,-0.0577
7,GCAAGCG,0.621
8,UGAGAUA,0.0853
9,UACUACA,-0.47
10,AGGGGCC,0.722
11,UUUAAAU,-0.639
12,CUACACA,-0.535
13,UUCAGUA,-0.402
14,CUUGGUG,0.904
15,AGGCAGU,0.316
16,UGAACUA,-0.331
17,CUCGGGU,0.768
18,UCAACAG,-0.288
19,UCAGUAA,-0.461
20,GUAACAA,-0.0187
21,GCUUCUC,-0.678
22,GAAAUUG,0.358
